For the assay, the target named is L-39F7. Kind of assay: BLI.

B1: Human βKlotho (receptor)
chain: not shown
B1 showed an equilibrium dissociation constant (Kd) of 1.7 nM.

The values above are taken from publication PMC10945505 (2024).
